In PubChem BioAssay AID485344 (National Center for Advancing Translational Sciences (NCATS), 2010) one finds inhibition data, which are given here for 62 molecules.

The whole screen tested about 340,000 compounds, of which about 6,900 (2%) were called active. Rule as the data show it: active = inhibition above about 30%; inactive = below that, where a call was filed. The entries are a selection whose mix differs from that of the whole data set. The source gives no active or inactive call for entries shown without one.

Usually inhibition stands for the drop in the measured response relative to a control, in per cent.

The experiment deals with D(2) dopamine receptor (Homo sapiens) (UniProt P14416). Nature of the experiment: HTS Assay for Allosteric Antagonists of the Human D2 Dopamine Receptor: Primary Screen for Antagonists. Also: 0% is about no effect. The note with it: HEK293 TREx D2 cells, calcium flux, dopamine EC80; at 10 µM; stronger effect = higher value. The text has this: NIH Chemical Genomics Center [NCGC] NIH Molecular Libraries Probe Centers Network [MLPCN] MLPCN Grant: NS064831-01 Assay Submitter (PI): David Sibley Dopamine receptors (DARs) are involved in the etiology and/or therapy of a number of neuropsychiatric and endocrine disorders. For instance, all receptor-based antiparkinsonian drugs work via stimulating the D2 DAR subtype whereas all FDA-approved antipsychotic agents are antagonists of this receptor. […] There are three different types of allosteric modulators that we are seeking, two of which will stimulate or augment receptor signaling, allosteric agonists and potentiators, while the third, allosteric antagonists, will attenuate receptor signaling. The present primary screening assay measures compound antagonism after an EC80 addition of dopamine by tracking calcium flux in a […], inducible Hek293 Trex D2 cell line.
Sequence of UniProt P14416 (P14416 whole entry, looked up): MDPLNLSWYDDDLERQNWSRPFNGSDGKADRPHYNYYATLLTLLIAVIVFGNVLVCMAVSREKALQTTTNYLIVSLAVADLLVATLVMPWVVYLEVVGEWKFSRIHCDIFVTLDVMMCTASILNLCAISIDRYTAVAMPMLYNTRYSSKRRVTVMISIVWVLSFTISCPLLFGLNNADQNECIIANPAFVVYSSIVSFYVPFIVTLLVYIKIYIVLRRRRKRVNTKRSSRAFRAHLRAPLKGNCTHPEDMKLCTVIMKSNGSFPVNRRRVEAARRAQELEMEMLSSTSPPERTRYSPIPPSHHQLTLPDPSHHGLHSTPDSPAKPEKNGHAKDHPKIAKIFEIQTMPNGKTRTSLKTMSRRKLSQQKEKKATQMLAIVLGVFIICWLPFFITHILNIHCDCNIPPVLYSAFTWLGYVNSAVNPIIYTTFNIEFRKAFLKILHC
Freshly passaged cells are plated in 1536 well black, clear bottom plates at a density of 4000 cells/well in 3 ul of complete media containing 1x tetracycline inducer. After an overnight incubation at 30 C in 5% CO2, cells are loaded with 2 ul of the no wash Calcium Assay Kit (ABD Bioquest) and incubated at room temperature for 30 to 90 minutes. Agonist read: A 10 cycle (1 second/cycle) baseline measurement is taken and then the FDSS online 1536 pintool delivers 23 nl of compound library (as well as dopamine controls) to the plate. The plate is measured for kinetically at 1 cycle/sec for 180 seconds. Following the 180 second read, 1 ul of an EC80 (negative modulation assay) is delivered by an onboard pipette head. Measurements are taken kinetically for an additional 180 seconds.
Consider `CCCN(CCC)C(=O)Cn1c(=O)n(CCCCCC(=O)NCc2ccccc2Cl)c(=O)c2sccc21`, for which the inhibition was -8.6%. In the case of `CC(C)CCNC(=O)C(Cc1ccccc1)NS(=O)(=O)c1ccc2c(c1)c(=O)n(C)c(=O)n2C` (configuration not stated), the inhibition came out at 10.8%. Then `Cc1ccc(C2c3c(oc4ccccc4c3=O)C(=O)N2c2nnc(C)s2)cc1` (configuration not stated), with -3.89%; and `CCN(CCCNC(=O)CN1N=C(c2ccccc2)CCC1=O)c1ccccc1`, with 13.2%; and `COc1ccc(C)cc1Nc1ncnc2c1c(-c1ccccc1)cn2-c1ccc(C)cc1`, with -15.4%. `O=c1c2sc3ccccc3c2n(Cc2ccccc2)c(=O)n1CCc1ccccc1`: the inhibition is -4.12%. Then `COc1ccc(S(=O)(=O)N2CCC(C(=O)Nc3cc(C(F)(F)F)ccc3Cl)CC2)cc1`, with -13.3%; and `COc1ccc(NC(=O)CCCN2C(=O)C3C4C=CC(C4)C3C2=O)c(OC)c1` (configuration not stated), with active: 35.3%; and `COc1ccc(/C=C/C(=O)NCC(=O)N/N=C/c2cc(Br)ccc2OC)cc1`, with active: 69.5%. Take `COc1ccc(OC)c2sc(N3CCN(C(=O)C4COc5ccccc5O4)CC3)nc12` (configuration not stated): the inhibition is 3.85%. Turning to `COc1cccc(Cc2nc3ccccc3nc2SCC(=O)Nc2cc(OC)ccc2OC)c1`, the inhibition is 4.79%. Consider `CCC(C)NC(=O)Cn1c(=O)n(Cc2ccc(C(=O)NCc3ccc(C)cc3)cc2)c(=O)c2ccccc21` (configuration not stated), for which the inhibition was determined as 3.84%.

Turning to `CCOc1ccccc1CNCCSc1nnnn1C`, the inhibition is -9.72%. Take `CCOCCn1ccc2c(OCC(=O)Nc3cccc(F)c3)cccc2c1=O`: the inhibition was 13.2%.

On to `CCOc1cc(-c2ccc(OC(=O)c3ccccc3)c(OC)c2)cc(=O)c2c(C)oc(C)c12`, for which the inhibition was found to be 1.81%. In the case of `Cc1cc(Cl)ccc1OCCCC(=O)N1CCN(C)CC1`, the inhibition was active: 32.2%.

Regarding `Cc1ccc2occ(CC(=O)Nc3ccc(S(=O)(=O)N4CCC(C)CC4)cc3)c2c1`, the inhibition came to 5.38%.

For the molecule `COc1ccc(Cl)cc1NC(=O)c1ccccc1C`, the inhibition is active: 32.4%. With `O=C(Nc1cccc(F)c1)c1oc2ccccc2c1NC(=O)C12CC3CC(CC(C3)C1)C2`, the inhibition is -3.06%. For the molecule `CC(C)c1ccc(NC(=O)CCS(=O)(=O)c2ccc3c(c2)CC(=O)N3C)cc1`, the inhibition is 3.13%. For `O=S(=O)(c1ccccc1)c1nnn2c1nc(NCc1ccccc1)c1cc(Cl)ccc12`, the inhibition came out at 23.1%.

For `Cc1cc(=O)[nH]c(SCC(=O)NCC2CCCO2)n1` (configuration not stated), the inhibition is active: 34%. On to `CCCCCn1cc2c(c1-c1ccccc1Br)c(=O)n(C)c(=O)n2C`, for which the inhibition stood at 5.83%. For the molecule `O=C(NC1CCCCC1)c1ccc2c(c1)N(Cc1ccccc1Cl)C(=O)c1ccccc1S2`, the inhibition was -9.42%. For the molecule `CCOc1ccccc1NC(=O)C1CCCN1S(=O)(=O)c1ccc2nc(-c3ccccc3)[nH]c2c1` (configuration not stated), the inhibition turned out to be 3.3%. Regarding `COc1ccc(CCNC(=O)Cn2cc(S(=O)(=O)Cc3ccc(F)cc3)c3ccccc32)cc1OC`, the inhibition is -0.0488%. On to `CCOc1ccc(C(=O)c2oc3ccccc3c2NC(=O)c2cc(-c3ccc(C)cc3)on2)cc1`, for which the inhibition is -19.7%.

In the case of `Cc1ccc(-c2cc(C(F)(F)F)n3ncc(-c4ccccc4)c3n2)cc1`, the inhibition is -1.11%. Consider `Cn1nnnc1SCCCNCc1cccc(OCc2ccccc2)c1`, for which the inhibition is -1.72%. For `CCOc1ccc(S(=O)(=O)Nc2cccc(-c3ccc(N4CCC(C)CC4)nn3)c2)cc1`, the inhibition is 7.59%.

On to `O=C(NCc1ccc(Cl)cc1)NC1COc2ccccc2C1` (configuration not stated), for which the inhibition is 6.1%.

As for `COc1ccccc1/C=C/CN1CCN(c2ccccc2)CC1`, the inhibition was active: 76.8%. In the case of `Cc1c(C(=O)OCc2ccccc2)[nH]c2c1C(=O)CC(c1ccc(Cl)cc1)C2` (configuration not stated), the inhibition is -1.67%. As for `CC1CCN(S(=O)(=O)c2ccc3c(c2)N(CC(=O)NCC(C)c2ccccc2)C(=O)CO3)CC1` (configuration not stated), the inhibition came to 10.6%. Regarding `CN(C)CCC=C1c2ccccc2C=Cc2ccccc21`, the inhibition was active: 49.1%.

As to `O=C(NCc1ccco1)c1ccc(Cn2c(SCc3ccccc3F)nc3cccnc32)cc1`, the inhibition is -19.3%. For the molecule `CN(C)c1ccc(CNC(=O)C2COc3ccccc3C2)cc1` (configuration not stated), the inhibition came out at 0.181%. Then `CCc1ccc(NC(=O)C2=CC(c3cccs3)=NS(=O)(=O)N2C)cc1`, with 12.4%; and `COc1cc(NS(=O)(=O)c2c(C)nc3sc(C)c(C)n3c2=O)cc(OC)c1`, with 8.32%. Consider `COc1ccc(C)c2sc(NC(=O)c3ccc(S(=O)(=O)N4CCCC4)cc3)nc12`, for which the inhibition was -16.9%. With `CCOc1ccccc1CNC(=O)Cn1nc(N2CCN(c3ccccc3)CC2)ccc1=O`, the inhibition was -2.81%. The same measure for `COc1ccc(C(=O)NCc2ccc3c(c2)CCN3C(=O)c2ccc(F)cc2)cc1`: 11.7%; for `CCOc1ccc(S(=O)(=O)Nc2ccc3oc4c(c3c2)CC(C)CC4)cc1` (configuration not stated): -10.9%. With `COc1ccccc1CNC(=O)COCc1cc(-c2ccc3c(c2)OCO3)on1`, the inhibition worked out at 3.97%. The same measure for `COc1ccc(/C=C(\C#N)c2nc3ccccc3c(=O)[nH]2)cc1OC`: -12%; for `CC(C)CN(CC(C)C)CC(O)Cn1cc(/C=C/C(=O)c2ccccc2)c2ccccc21` (configuration not stated): -2.26%.

Consider `O=C(COc1ccc(F)cc1)OCc1cc(=O)n2nc(-c3cccs3)sc2n1`, for which the inhibition worked out at 3%. Turning to `COc1cccc(CNS(=O)(=O)c2c(C(=O)N3CCC(C)CC3)c(C)n(C)c2C)c1`, the inhibition came out at 7.74%. Consider `O=C1C(=O)N(C2CCN(C(=O)c3ccccc3F)CC2)CCN1Cc1ccc(F)cc1`, for which the inhibition is -4.33%. Then `Cc1ccc(-c2noc(CSc3nnc(C)n3-c3ccc(C)c(C)c3)n2)cc1`, with 3.16%. Take `c1ccc2c(c1)OCC(CNCC1COc3ccccc3O1)O2` (configuration not stated): the inhibition is active: 64.2%. As to `COc1ccc(Cl)cc1NC(=O)CSc1ccc2nnc(CCNS(=O)(=O)c3ccccc3)n2n1`, the inhibition was 9.56%. On to `CCCCC(=O)Nc1nnc(S(=O)(=O)N(C)Cc2ccccc2)s1`, for which the inhibition is -18.7%. On to `CCCCCNC(=O)C1CCC(Cn2c(=O)c3sccc3n(CC(=O)NCc3cccc(OC)c3OC)c2=O)CC1` (configuration not stated), for which the inhibition was determined as 8.64%. The same measure for `CCSc1nnc2c(n1)OC(c1ccc(OC)c(OC)c1)N(C(C)=O)c1ccccc1-2` (configuration not stated): -1.48%. In the case of `CC(C)Cn1c(=S)[nH]c2cc(C(=O)O)ccc2c1=O`, the inhibition was active: 30.6%.

As to `Cc1cccc(N(C)S(=O)(=O)c2cc3[nH]c(=O)c(=O)[nH]c3cc2C)c1`, the inhibition is 2.35%. With `O=C(Nc1ccc(NC(=O)C2CC2)nc1)c1cccnc1`, the inhibition is active: 38%.

As for `COc1ccccc1C(=O)Nc1nnc2n1CCS2`, the inhibition amounted to 14.9%.

On to `Cc1c(Cl)cccc1NC(=O)CSc1nc(=O)n(Cc2ccco2)c2c1CCC2`, for which the inhibition was -7.36%. For `CC(C)OCc1cc(CN2CCN(c3cccc(C(F)(F)F)c3)CC2)c(O)c2ncccc12`, the inhibition is -5.2%. For the molecule `Cc1ccc(CCNC(=O)CN(c2ccc(C)cc2)S(=O)(=O)N(C)C)cc1`, the inhibition stood at 6.01%.
